Where a chain is given by its changes, count along the chain named.
B1: fusion protein of SEQ ID NO: 25 (CID213110) (designed binder)
chain: AKFDEAQTAAFWEIEHLPNLTEEQRWAFIWSLADDPSVSLEVLGEAQKLNDSQAPKIAAKFDEAQQAAFYEILHLPNLTEWQRNYFIQKLRDDPSVSLWVLGQAQILNDSQAPKIAAQHDKIQQAADKEILHLPNLTEEQRNKFRQSLRDDPSVSAEILAEAKKLNDAQAPKIAAQHDKIQQAADKEILHLPNLTEEQRNKFRQSLRDDPSVSAEILAEAKKLNDAQAPKIAAQHDKIQQAADKEILHLPNLTEEQRNKFRQSLRDDPSVSAEILAEAKKLNDAQAPK
B2: CFH binding protein of SEQ ID NO: 19 (CID 209860) (designed binder)
chain: IAAKFDEAQWAAFEEIAHLPNLTEEQREAFIQSLWDDPSVSLEVLGEAQKLNDSQAPKIAAKFDEAQQAAFYEILHLPNLTERQRNWFIQRLRDDPSVSLWVLGRAQRLNDSQAPK
B3: SEQ ID NO 7 (designed binder)
chain: B2 chain with E14Y, A17V, S39G, R83A, W87H, W101V, R105Q, R108K
B4: SEQ ID NO 18 (designed binder)
chain: B2 chain with E14Y, A17V, R91Q, W101T
B5: CFH binding protein of SEQ ID NO: 10 (CID 209372) (designed binder)
chain: B2 chain with E14Y, A17V, R83Q, W87Y, W101A, R105H, R108K
notes: Coupled to Praesto Epoxy 85 resin
B6: affinity ligand 209621 (SEQ ID NO: 13) (designed binder)
chain: IAAKFDEAQTAAFWEIEHLPNLTEEQRWAFIWSLADDPSVSLEVLGEAQKLNDSQAPKIAAKFDEAQQAAFYEILHLPNLTEWQRNYFIQKLRDDPSVSLWVLGQAQILNDSQAPK
notes: coupled to Praesto Epoxy 85 resin in chromatography; also called Praesto_209621 (when immobilized)
B7: CFH binding protein of SEQ ID NO: 11 (CID 209429) (designed binder)
chain: IAAKFDEAQQRAFYWILHLRNLTEEQRNAFIQSLRDDPSVSKEVLGEAYKLNKSQAPKIAAKFDEAQTAAFWEIWHLPNLTEEQRVAFIHSLQDDPSVSLEVLGEAQKLNDSQAPK
notes: as for B5
B8: CFH binding protein of SEQ ID NO: 12 (CID 209434) (designed binder)
chain: B7 chain with K53V, T68V, P96Q
notes: as for B5
B9: CFH binding protein of SEQ ID NO: 21 (CID 209920) (designed binder)
chain: B7 chain with R11E, R20E, K42E, Y49L, K53V, T68Y, W75Q, V86H, H90W, Q93L
notes: as for B5
B10: CFH binding protein of SEQ ID NO: 22 (CID 209921) (designed binder)
chain: IAAKFDEAQQEWAFYHILHLYNLTEEQRNAFIQSLRDDPSVSQEVLGEAWKLNQSQAPKIAAKFDEAQYAAFWEIWHLPNLTEEQRWAFILSLHDDPSVSLEVLGEAQKLNDSQAPK
notes: as for B5

What follows are binders tested against T1, recombinant human complement factor H (CFH), isolated from moss (human, UniProt P08603 19-1231) (assay: affinity chromatography, ligand on Praesto Epoxy 85, CFH supernatant).
T1 construct: also called moss-FH; recombinant CFH
Method: (§1) Coupling parameter. Proteins were purified to homogeneity and coupled to resin for AIC experiments. […] Variants were successfully coupled to epoxy-activated Praesto 85 resin.
(§2) AIC experiments. Capturing and Elution. For initial column performance tests, resins were packed into superformance 50-5 column housing. Phosphate buffered saline pH 7.3 (PBS) was used to equilibrate the column, followed by applying of 10 mL of recombinant CFH expression supernatant (titer: 0.47 mg/mL) at 6 min residence time. Resin was then washed with PBS for 15 column volumes. Elution was performed at pH 3.5 using 100 mM Citric acid buffer followed by stripping of residual bound CFH at pH 2.0. Elution at pH 3.5 and pH 2.0 was calculated by UV 280 nm absorption.
SBC Determination. For SBC determination increased volumes (50 ml, titer: 0.75 mg/mL) of recombinant CFH expression supernatant were applied.

T1 sequence (P08603 19-1231 limits assumed): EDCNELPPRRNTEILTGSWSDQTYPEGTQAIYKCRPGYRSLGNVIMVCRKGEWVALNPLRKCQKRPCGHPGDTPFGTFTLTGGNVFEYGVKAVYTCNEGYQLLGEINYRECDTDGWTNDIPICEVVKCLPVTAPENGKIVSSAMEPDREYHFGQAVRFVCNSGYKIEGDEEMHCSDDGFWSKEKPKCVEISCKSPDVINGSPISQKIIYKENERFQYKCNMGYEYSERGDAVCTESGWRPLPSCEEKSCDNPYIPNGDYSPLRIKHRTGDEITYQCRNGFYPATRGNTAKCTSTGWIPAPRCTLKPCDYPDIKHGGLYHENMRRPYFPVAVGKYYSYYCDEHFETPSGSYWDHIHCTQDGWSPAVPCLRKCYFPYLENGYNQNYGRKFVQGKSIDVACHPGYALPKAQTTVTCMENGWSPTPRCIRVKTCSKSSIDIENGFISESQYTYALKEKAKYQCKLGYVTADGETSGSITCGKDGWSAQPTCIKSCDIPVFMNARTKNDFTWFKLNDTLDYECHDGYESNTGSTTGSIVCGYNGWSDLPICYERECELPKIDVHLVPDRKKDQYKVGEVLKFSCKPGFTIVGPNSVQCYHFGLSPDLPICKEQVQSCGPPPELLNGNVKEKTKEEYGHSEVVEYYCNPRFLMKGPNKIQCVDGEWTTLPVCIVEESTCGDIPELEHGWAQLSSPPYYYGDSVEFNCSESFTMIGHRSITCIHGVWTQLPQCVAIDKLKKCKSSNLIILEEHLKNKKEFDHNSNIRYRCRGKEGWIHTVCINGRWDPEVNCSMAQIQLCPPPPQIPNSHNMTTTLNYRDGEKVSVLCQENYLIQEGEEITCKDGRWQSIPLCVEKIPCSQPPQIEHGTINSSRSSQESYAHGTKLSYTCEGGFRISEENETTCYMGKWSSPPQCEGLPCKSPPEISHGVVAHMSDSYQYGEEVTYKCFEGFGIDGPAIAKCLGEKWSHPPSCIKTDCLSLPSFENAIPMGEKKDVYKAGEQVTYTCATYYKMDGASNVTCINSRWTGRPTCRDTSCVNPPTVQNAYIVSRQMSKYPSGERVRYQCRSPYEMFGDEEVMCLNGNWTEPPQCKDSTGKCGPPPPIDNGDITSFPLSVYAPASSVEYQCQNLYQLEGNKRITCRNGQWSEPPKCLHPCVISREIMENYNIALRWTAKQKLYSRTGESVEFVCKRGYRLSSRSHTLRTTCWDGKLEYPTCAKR

Binder | binding result
B1 | binds

The binders below were run against T1, recombinant human complement factor H … (assay: SPR (Example 3), ligand immobilized, soluble CFH injected).
Source text: Purified proteins were immobilized via C-terminal Cysteine on a CM-5 sensor chip (GE Healthcare) using NHS/EDC after PDEA activation resulting in 110-140 RU with a Biacore 3000 system (GE Healthcare). The chip was equilibrated with SPR running buffer (PBS 0.05% Tween pH 7.3). Otherwise variants were immobilized via Streptag using rProtein A surface and an anti strep-tag antibody (Anti-[…], GenScript) for variant capturing.
Soluble recombinant CFH applied to the chip in serial dilutions (different concentrations) with a flow rate of 30 μl/min. The association was performed for 120 seconds and the dissociation for 120 seconds. After each run, the chip surface was regenerated with 30 μl regeneration buffer (10 mM glycine pH 2.0) and equilibrated with running buffer.

Binder | Kd [µM]
B2 | < 0.5
B3 | < 0.5
B4 | < 0.5

What follows are binders tested against T1, recombinant human complement factor H … (assay: affinity chromatography, ligand on Praesto Epoxy 85, CFH supernatant bound in PBS pH 7.3, eluted at pH 3.5).
Method: as §1, §2

Binder | Step Yield of CFH at pH 3.5 (percentage elution) [%]
B5 | 58
B2 | 77
B6 | 54
B7 | 96
B8 | 95
B9 | 89
B10 | 91
